Laboratory results taken from the supplement of paper PMC8728848.
The list shows a part of the results.

How the values were obtained:
Test in all cases: glycan array binding signal (z-score within array); higher = stronger binding
Conditions in all cases: glycan notation: IUPAC condensed, linker removed
[1] = target: Neu5Ac(a2-3)Gal6S(b1-4)[Fuc(a1-3)]GlcNAc
How it was run: (§1)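 From the Consortium for Functional Glycomics database, 3228 arrays were curated, keeping only those whose protein sequence was available. Binding is given as a within-array Z-score averaged across arrays sharing a protein sequence and across linkers. Negative Z-scores can be read as non-binding.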

Neu5Ac(a2-3)GalNAc = target: Neu5Ac(a2-3)GalNAc
How it was run: as §1

[2] = target: Neu5Ac(a2-3)GalNAc(b1-4)GlcNAc
How it was run: as §1

[3] = target: Neu5Ac(a2-3)[GalNAc(b1-4)]Gal(b1-4)Glc
How it was run: as §1

[4] = target: Neu5Ac(a2-3)[GalNAc(b1-4)]Gal(b1-4)GlcNAc
How it was run: as §1

[5] = target: Neu5Ac(a2-3)[GalNAc(b1-4)]Gal(b1-4)GlcNAc(b1-3)GalNAc
How it was run: as §1

[6] = target: Neu5Ac(a2-3)[Neu5Ac(a2-6)]GalNAc
How it was run: as §1

Neu5Ac(a2-6)Gal = target: Neu5Ac(a2-6)Gal
How it was run: as §1

[7] = target: Neu5Ac(a2-6)Gal(b1-3)GlcNAc(b1-3)[Gal(b1-4)GlcNAc(b1-6)]Gal(b1-4)Glc
How it was run: as §1

Neu5Ac(a2-6)Gal(b1-4)Glc = target: Neu5Ac(a2-6)Gal(b1-4)Glc
How it was run: as §1

[8] = target: Neu5Ac(a2-6)Gal(b1-4)GlcNAc
How it was run: as §1

[9] = target: Neu5Ac(a2-6)Gal(b1-4)GlcNAc(b1-2)Man
How it was run: as §1

[10] = target: Neu5Ac(a2-6)Gal(b1-4)GlcNAc(b1-2)Man(a1-3)Man(b1-4)GlcNAc(b1-4)GlcNAc
How it was run: as §1

[11] = target: Neu5Ac(a2-6)Gal(b1-4)GlcNAc(b1-2)Man(a1-3)[Gal(b1-4)GlcNAc(b1-2)Man(a1-6)]Man(b1-4)GlcNAc(b1-4)GlcNAc
How it was run: as §1

[12] = target: Neu5Ac(a2-6)Gal(b1-4)GlcNAc(b1-2)Man(a1-3)[GlcNAc(b1-4)][Neu5Ac(a2-6)Gal(b1-4)GlcNAc(b1-2)Man(a1-6)]Man(b1-4)GlcNAc(b1-4)GlcNAc
How it was run: as §1

[13] = target: Neu5Ac(a2-6)Gal(b1-4)GlcNAc(b1-2)Man(a1-3)[Man(a1-6)]Man(b1-4)GlcNAc(b1-4)GlcNAc
How it was run: as §1

[14] = target: Neu5Ac(a2-6)Gal(b1-4)GlcNAc(b1-2)Man(a1-3)[Neu5Ac(a2-3)Gal(b1-4)GlcNAc(b1-2)Man(a1-6)]Man(b1-4)GlcNAc(b1-4)GlcNAc
How it was run: as §1

[15] = target: Neu5Ac(a2-6)Gal(b1-4)GlcNAc(b1-2)Man(a1-3)[Neu5Ac(a2-6)Gal(b1-4)GlcNAc(b1-2)Man(a1-6)]Man(b1-4)GlcNAc(b1-4)GlcNAc
How it was run: as §1

[16] = target: Neu5Ac(a2-6)Gal(b1-4)GlcNAc(b1-2)Man(a1-3)[Neu5Ac(a2-6)Gal(b1-4)GlcNAc(b1-2)Man(a1-6)]Man(b1-4)GlcNAc(b1-4)[Fuc(a1-6)]GlcNAc
How it was run: as §1

[17] = target: Neu5Ac(a2-6)Gal(b1-4)GlcNAc(b1-2)Man(a1-6)Man(b1-4)GlcNAc(b1-4)GlcNAc
How it was run: as §1

[18] = target: Neu5Ac(a2-6)Gal(b1-4)GlcNAc(b1-2)Man(a1-6)[Gal(b1-4)GlcNAc(b1-2)Man(a1-3)]Man(b1-4)GlcNAc(b1-4)GlcNAc
How it was run: as §1

[19] = target: Neu5Ac(a2-6)Gal(b1-4)GlcNAc(b1-2)Man(a1-6)[GlcNAc(b1-2)Man(a1-3)]Man(b1-4)GlcNAc(b1-4)GlcNAc
How it was run: as §1

B1: Cp ZmpB (Clostridium perfringens), Q0TR08 (protein)
chain: MNKRKIAAIILATMITNLSATTIDVLAQELNTKNNSKVEVSHDDESHQARVSKFDLYNSDKLDAYNQEFQVSRSNIKSINNNGGKYNSSTIDKAIDGNLETHWETGKPNDANFTNEVVVTFNEITNIDRIVYSARRDSARGKGFAKEFEIYASLKDEGDDFNLVSSGEYTESTRDLVEIKFNPTDFKRLKFKFKKADQNWASAAEFMFYKEDKLNEKFNGLFTDSSMNKVSEEFNTLEKLNAFENELKDHPIYDLYKEGLNNARAILTETSENPTKATLGQITYNLNDDYNNQYRMPYKNIKAIKNNGRHYAAQNIEKAIDNDVNTYWETGTLNSSSFNNEVEVEFNDLVTLDRIVYGSRQSDLKGFAEEVYIYASRTSKGDTYKLVATGAHEATKGLVEAKFEPTEFKRVKFKFKKSKQNSATLNELMFYKPDEVYSSIPKLFTDGTMSELSEEFNSLEKINAFKEKAKNHPLYNDFNETIELAESLISNPRKEDVLELEMRGDSISEAKKRKVWNFQDWQITGLSARAGDKITVYVDVAEGDPTPTLLYKQSLTQHGGATSFQLKPGKNEITIPEINYESNGIPKDVIQGGDLFFTNYKSDSQKRAPKVRIEGASKYPVFILGKSDENEVMKELEAYVEKIKAEPKTTPNIFAVSSNKSLEFVQATYALDWYKKNNKTPKYTAEQWDQYIADAMGFWGFDNSKDVNSDFNFRIMPMVKNLSGGAFMNAGNGVIGIRPGNQDAILAANKGWGVAHELGHNFDTGGRTIVEVTNNMMPLFFESKYKTKTRITDQNIWENNTYPKVGLDDYSNNELYNKADSTHLAQLAPLWQLYLYDNTFYGKFERQFRERDFGNKNREDIYKSWVVAASDAMELDLTEFFARHGIRVDDKVKEDLAKYPKPDKKIYYLNDLAMNYKGDGFTENAKVSVSTSGSNGNIKLSFSVDDENKDNILGYEIRRDGKYVGFTSNDSFVDTKSNLDEDGVYVVTPYDRKLNTLNPIEVNALQPTLSVNPVITLALGEEFNEEEYIVAKDIKGNSLSESVKVKSSNVNTSKVGEYEVLYSLEDSKGNEYTKTSKVNVVSRKEYMSDLTPKQSSNGWGTVRKDKSISGGVIGLTRDGDFVDYNKGLGLHSNAEYVYDLEGKDYDYFESYVGVDKAMSSRPASSVIFKVLVDGEEKFNSGVMRSTTPQKYVKVDVKNAKELKLIVNDAGDGDSSDHASFGDAKLATLSSKPIIKGENLAYSMDEKVDLMKGITATDIEDGNITSKVQIKSSDFVEGKSGIFTVVYSVTDSDGLTSECSRTIAVTDKETQLSDLNWKSATIGSGSVRKDRAVSGNQIRLLNEDNSVETFAKGIGTHSYSEIVYNSEGYDIFDTWVGIDRHVADKKVSSVKFKVYVDGELKAETDVMRIDTPKKRLVVDVRNSKEIKLVVDVADNGNNWDHADWADAKFRNLAEYDASELNKAIEEAKKLDLNNYTEESSEALKNAISKGEEALLSKDKETINSALEELNKEMNSLVKVDLNAVINIPDKYLLKSIQNQLNKTGDITLGDMYSLTTLTLSGVEDLTGLENAKNLETLNMDYNEVKDLRPLSKLKKLNTLNAQEQFIAAGELKPSNGKVIGDSKVYNREGKNVAKTIRVVDKNGNTILEQDAKDEFTINTKDLSSGLYGVHVLFEDEGFSGVMFYLFNV
- glycan array binding signal (z-score) [1]: 0.026
- glycan array binding signal (z-score) (Neu5Ac(a2-3)GalNAc): -0.181
- glycan array binding signal (z-score) [2]: -0.048
- glycan array binding signal (z-score) [3]: -0.154
- glycan array binding signal (z-score) [4]: -0.398
- glycan array binding signal (z-score) [5]: 0.317
- glycan array binding signal (z-score) [6]: -0.391
- glycan array binding signal (z-score) (Neu5Ac(a2-6)Gal): -0.172
- glycan array binding signal (z-score) [7]: -0.189
- glycan array binding signal (z-score) (Neu5Ac(a2-6)Gal(b1-4)Glc): -0.214
- glycan array binding signal (z-score) [8]: -0.28
- glycan array binding signal (z-score) [9]: 0.056
- glycan array binding signal (z-score) [10]: -0.151
- glycan array binding signal (z-score) [11]: 0.472
- glycan array binding signal (z-score) [12]: -0.267
- glycan array binding signal (z-score) [13]: -0.365
- glycan array binding signal (z-score) [14]: 0.529
- glycan array binding signal (z-score) [15]: -0.121
- glycan array binding signal (z-score) [16]: -0.037
- glycan array binding signal (z-score) [17]: -0.16
- glycan array binding signal (z-score) [18]: -0.104
- glycan array binding signal (z-score) [19]: -0.274
